Measured values published in the RNAGym collection of RNA variant scans (doi:10.7554/elife.90254).
Read counts are not given, so values of variants with three or more changes are uncertain.

B1: OR4K15 (parent)
chain: GUUAACGGUCAUAGGCCAUGGAAACUAGGAGCACCAUUUCGCUGCCAGUGAAGAAAUGAACAAAGAAAAUCUGGGCCAGGCAGGCAUCAAAAGAAAUAGUCUUGCGCUCAACCAGAAAGUCUGUAAUCAUUUUAAGGGUA

Variants of: B1
Test: self-cleavage, relative activity (ratio to wild type); higher = more cleavage; in vitro, sequencing; the parent is a self-cleaving ribozyme

Q: With UUUAACGGUCAUAGGCCAUGGAAACUAGGAGCACCAUUUCGCUGCCAGUGAAGAAAUGAACAAAGAAAAUCUGGGCCAGGCAGGCAUCGAAAGAAAUAGUCUUGCGCUCAUCCAGAAAGUCUGUAAUCAUUUUAAGGGUA [G1U A89G A111U] as the variant, how does the self-cleavage read?
A: 0.16

Q: With GAUAUCGGUCAUAGGCCAUGGAAACUAGGAGCACCAUUUCGCUGCCAGUGAAGAAAUGAACAAAGAAAAUCUGGGCCAGGCCGGCAUCAAAAGAAAUAGUCUUGCGCUCAACCAGAAAGUCUGUAAUCAUUUUAAGGGUA [U2A A5U A82C] as the variant, how does the self-cleavage read?
A: 0.43

Q: Which self-cleavage does the source give for GAUAACGGUCAUAGGCCUUGGAAACUAGGAGCACCAUUUCGCUGCCAGUGAAGAAAUGAACAAAGAAAAUCUGGGCCAGGCAAGCAUCAAAAGAAAUAGUCUUGCGCUCAACCAGAAAGUCUGUAAUCAUUUUAAGGGUA [U2A A18U G83A] here?
A: 1.17

Q: With UUUAACGGUCAUAGGCCAUGGAAACUAGGGGCACCAUAUCGCUGCCAGUGAAGAAAUGAGCAAAGAAAAUCUGGGCCAGGCAGGCAUCAAAAGAAAUAGUUUUGCGCUCAACCAGAAAGUCUGUAAUCAUUUUAAGGGUA [G1U A30G U38A A60G C101U] as the variant, how does the self-cleavage read?
A: 0.6

Q: For AAUAACGGUCAUAGGCCAUGGAAACUAGGAGCACCAUUUCGCUGCCAGUGAAGAAAUGAACAAAGAAAACCUGGGCCAGGCAGGCAUCAAAAGAAAUAGUCUUGUGCUCAACCAGAAAGUCUGUAAUCAUUUUAAGGGUA [G1A U2A U70C C105U], which self-cleavage is on record?
A: 0.25

Q: With AUUAACGGUCGUAGGCCAUGGAAACUAGGAGCACCGUUUCGCUGCCGGUGAAGAAACGAACAAAGAAAAACUGGGCCAGGCAGGCAUCAAAAGAAAUAGUCUCGCGCUCAACCAGAAAGUCUGUAAUCAUUUUAAGGGUA [G1A A11G A36G A47G U57C U70A U103C] as the variant, how does the self-cleavage read?
A: 0.58

Q: With AUUAACGGUCAUAGGCCAUGGAAACUAGGAGCACCAUUUCGCUGCCAGUGAUGAAAUGAACAAAGAAAAUCUGGGCCAGGCAGGCAUCAAAAGAAAUAGUCUUGCGCUCAACCAGAAAGUCUGUAAUCAUUUUAGGGGUA [G1A A52U A135G] as the variant, how does the self-cleavage read?
A: 1.54

Q: For AUUAACGGACAUAGGCCAUGGAAACUAGGAGCACCAUUUCGCUGCCAGUGAAGAAAUGAACAAAGAAAGUCUGGGCCAGGCAGGCAUCGAAAGAAAUAGUCUUGCGCUCAACCAGAAAGUCUGUAAUCAUUUUAAGGGUA [G1A U9A A69G A89G], which self-cleavage is on record?
A: 1.4

Q: With GAUAACGGUCAUAGGCCAUGGAAACUAGGAGCGCCAUUUCGCUGCCAGUGAAGAAAUGAACAAAGAAAAUCUGGGCCAGGCAGGCAUCAAAAGAAAUAGUCUUGCGCUCAACCAGAAGGUCUGUGAUCAUUUUAAGGGUA [U2A A33G A118G A125G] as the variant, how does the self-cleavage read?
A: 0.1

Q: Which self-cleavage does the source give for AUUAACGGUCAUAGGCCAUGGAAACUAGGAGCACCAUUUCGCUGCCGGUGAAGAAAUGAACAAAGAAAAUCUGGGCCAGGCAGGCAUCAAAAGAAAUAGUCUUGCGCUCAACCAGAAAGUCUGUAAUCACUUUAAGGGUA [G1A A47G U130C] here?
A: 0.59

Q: With AUUAACGGUCAUAGGCCAUGGAAACUAGGAGCACCAUUUCGCUGCCAGUGAAGAAAUGGACAAAGAAAAUCUGGGCCAGGCAGGCAUCAAAGGAAAUAGUCUUGCGCUCAACCAGAAAGUCUGUAAUCAUUUUAAGGGUA [G1A A59G A92G] as the variant, how does the self-cleavage read?
A: 1.47

Q: Which self-cleavage does the source give for GAUAACGGUCAUAGGCCAUGGAGACUAGGAGCACCAUUUCGCUGCCAGUGAAUAAAUGAACAAAGAAAAUCUGGGCCAGGCAGGCAUCAAAAGAAAUAGUCUUGCGCUCAACCAGAAAGUCUGUAGUCAUUUUAAGGGUA [U2A A23G G53U A126G] here?
A: 0.79

Q: With GAUAACGGUCAUAGGCCUUGGAAACUAGGAGCACCAUUUCGCUGCCAGUGAAGAGAUGAACAAAGAAAAUCUGGGCCAGGCAGGCAUCAAAAGAAAUAGUCUUGCGCUCAACCAGAAAGUCUGUAAUCAUUUUAAGGGUA [U2A A18U A55G] as the variant, how does the self-cleavage read?
A: 1.26

Q: With AUUAACGGUCAUAGGCCAUGGAAACUAGGAGCACCAUUUCGCUGCCAGUGAAGAAAUGAACAAAGAAAAUCUGGGCCAGGCAGGCAUCAAGAGAAAUAGUCAUGCGCCCAACCAGAAAGCCUGUAGUCAUUUUAAGGGUA [G1A A91G U102A U108C U120C A126G] as the variant, how does the self-cleavage read?
A: 0

Q: Which self-cleavage does the source give for GAUAACGGUCAUUGGCCAUGGAAACUAGGAGCACCAUUUCGCUGCCAGUGAAGAAACGAACAAAGAAAAUCUGGGCCAGGCAGGCAUCAAAAGAAAUAGUCUUGCGCUCAACCAGAAAGUCUGUAAUCAUUUUAAGGGUA [U2A A13U U57C] here?
A: 1.14

Q: With GAUAACGGUCAUAGGCCAUGGGAACUAGGAGCACCAUUUCGCUGCCAGUGAAGAAAUGAACAAAGAAAAUCUGGGCCAGGCAGGCAUCAAAGGAAAUAGUCUUGCGCUCAACCAGAAAGUCUGUAAUCAUUUUAGGGGUG [U2A A22G A92G A135G A140G] as the variant, how does the self-cleavage read?
A: 0.76

Q: Which self-cleavage does the source give for UUUAACGGUCAUAGGCCACGGAAACUAGGAGCACCAUUUCGCUGCCAGUGAAGAAAUGAACAAAGAAAAUCUGGGCCAGGCAGGCAUCAAAAGAAAUAGUCUUGCGCUCAACCAGAGGGUCUGUAAUCAUUUUAAGGGUA [G1U U19C A117G A118G] here?
A: 0.7

Q: Which self-cleavage does the source give for AUUAACGGUCAUAGGCCAUGGAAACUAGGAGCACCAUUUCGCUGCCGGUGAAGAAAUGAACAAAGAAAAUCUGGGCCAGGCAGGCAUCAAAAGAAAUAGCCUCGCGCUCAACCGGCGAGUCUGUAAUCAUUUUAAGGGUA [G1A A47G U100C U103C A114G A116C A117G] here?
A: 0.03

Q: For GAUAACGGUCAUGGGCCAUGGAAACUAGGAGCACCGUUUCGCUGCCAGUGAAGAAAUGAACAAAGAAAAUCUGGGCCAGGUAGGCAUCAAAAGAAAUAGUCUUGCGCUCAACCAGAAGGUCUGUAAUCAUUUUAAGGGUA [U2A A13G A36G C81U A118G], which self-cleavage is on record?
A: 0.49

Q: With GAUAACGGUCAUAGGCCGUGGAAACUAGGAGCACCAUUUCGCUGCCAGUGAAGAAAUGAACAAAGAAAAUCUGGGCCAGGCAGGCAUCAAAAGAAAUAGUCUUGCGCUCAACCAGAAAGUCUGUAACCAUUUUAAGGGUA [U2A A18G U127C] as the variant, how does the self-cleavage read?
A: 1.55
